# Data from PubChem BioAssay AID493131 (Broad Institute, 2011).
# The whole screen tested about 340,000 compounds, of which about 3,300 (0.97%) were called active. The shares of active, inactive and inconclusive entries below differ from those in the screen.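 How the source made its calls: active means mean activation above about 17%, with every replicate also reaching it (limit read from the data, passing the limit was not always enough); inconclusive means only one of the two conditions met; inactive means the rest.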
# Target: Protein FosB (Mus musculus) (UniProt P13346)
# Assay: enhancers of mouse delta FosB DNA binding – biochemical, fluorescence polarization, TAMRA-CDK5 oligo, single point, primary screen (AID 493131);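 further: fluorescence polarization rise as delta FosB binds a TAMRA Cdk5 AP-1 oligo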
# Settings: purified delta FosB, at 25 µM, stronger effect = higher value, percent of positive-control signal above neutral wells
# Sequence of UniProt P13346 (P13346 whole entry, looked up): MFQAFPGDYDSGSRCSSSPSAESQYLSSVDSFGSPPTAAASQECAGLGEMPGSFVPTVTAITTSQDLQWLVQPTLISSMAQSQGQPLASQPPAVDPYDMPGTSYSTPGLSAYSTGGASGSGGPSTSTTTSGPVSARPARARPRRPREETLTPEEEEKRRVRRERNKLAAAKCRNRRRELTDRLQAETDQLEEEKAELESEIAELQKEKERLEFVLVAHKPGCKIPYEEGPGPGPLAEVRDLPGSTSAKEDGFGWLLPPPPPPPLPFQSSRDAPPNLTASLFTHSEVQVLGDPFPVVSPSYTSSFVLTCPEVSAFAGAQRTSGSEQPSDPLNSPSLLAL
row,SMILES,activation
1,Nc1nc(N)c(N=Nc2ccc(Cl)cc2)c(=O)[nH]1,inconclusive: 18.9%
2,O=C(Nc1ccc2c(c1)OCO2)Nc1ccc(F)cc1F,inconclusive: 18.8%
3,COc1cc(C2C(C#N)=C(N)Oc3cc(C)n(CCc4ccccc4)c(=O)c32)cc2c1OCO2 (stereo not drawn),active: 67.5%
4,COc1cccc(OCC(O)CN2CCN(CCN3C(=O)c4cccc5cccc(c45)C3=O)CC2)c1 (stereo not drawn),inconclusive: 22%
5,CCOc1ccc(CN2CCC(C(=O)Nc3cccc(-c4ccn[nH]4)c3)CC2)cc1Cl,inconclusive: 17.1%
6,CCOC(=O)N1N=C(c2ccc(C)cc2)CC1(O)C(F)(F)F (stereo not drawn),inactive: -2.12%
7,Cc1cccc(Cn2c(SCC(=O)Nc3ccccc3)nc3c2c(=O)[nH]c(=O)n3C)c1,inconclusive: 19%
8,Cc1ccc(NC(=O)Nc2nc3ccc(S(C)(=O)=O)cc3s2)cc1,inconclusive: 16.2%
9,CC1(C)Cc2c(ccc3ccccc23)C(c2cc3ccccc3oc2=O)=N1,inactive: 1.14%
10,CCCCn1c(N)c(N(CCC(C)C)C(=O)CSc2nc3ccccc3n2C)c(=O)[nH]c1=O,inconclusive: 28.9%
11,COc1ccc(S(=O)(=O)N(CCCN2CCOCC2)Cc2cccc3ccccc23)cc1,inactive: 0.304%
12,COc1ccc(CCn2c(=N)c(C(=O)NCC3CCCO3)cc3c(=O)n4cccc(C)c4nc32)cc1 (stereo not drawn),inconclusive: 19.4%
13,Cc1ccc(C)c(NC(=O)C(Sc2nc3ccc(C)cc3[nH]2)c2ccccc2)c1 (stereo not drawn),inactive: 11.4%
14,CC(C)CN(C(=O)COC(=O)CSc1ccccc1F)c1c(N)n(Cc2ccccc2)c(=O)[nH]c1=O,inconclusive: 21.4%
15,Cc1cc(C)nc(N/N=C/C2=C(N3CCOCC3)C(=C/c3ccccc3)/CC2)n1,inactive: -0.226%
16,COc1ccc2nc(C)cc(SCC(=O)NNC(=O)COc3cccc4ccccc34)c2c1,inconclusive: 19%
17,Cc1cccc(NC(=O)CSc2nc(N)c(NC(=O)c3ccccc3F)c(=O)[nH]2)c1,inconclusive: 18.9%
18,COc1ccc(C(=O)Nc2nnc(S(=O)(=O)Cc3ccccc3)s2)cc1,active: 23.1%
19,Oc1cccc(C2c3[nH]c4ccccc4c3CCN2Cc2cnn(-c3ccccc3)c2)c1 (stereo not drawn),inconclusive: 17.6%
20,COc1cc(-c2cc(-c3ccccc3)nc(SCC(=O)Nc3nccs3)c2C#N)cc(OC)c1OC,inconclusive: 18.7%
21,CCC(CO)Oc1cc(NC(=O)c2ccc(N)cc2)c2ncn(C(C)C)c2c1 (stereo not drawn),inactive: -11.6%
22,O=C(Nc1cccnc1)c1sc2cccc(F)c2c1Cl,inactive: -23.1%
23,CCN1/C(=C/C(C)=C/c2sc3ccccc3[n+]2CC)Sc2ccccc21,active: 507%
